Results: the supplement of paper PMC8728848
This is one part of the list.

Experiments:
Test in all cases: glycan array binding signal (z-score within array); higher = stronger binding
Conditions in all cases: glycan notation: IUPAC condensed, linker removed
[1] = target: Man(b1-4)GlcNAc
Summary of the method: (§1)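 The binding signal is a Z-score computed within each array. Data were drawn from 3228 arrays in the Consortium for Functional Glycomics database, restricted to those with a known protein sequence. Scores were averaged over arrays of the same protein sequence at different concentrations or buffers, and over linkers, and negative values can be taken as non-binding.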

[2] = target: Neu5Ac(a2-3)Gal
Summary of the method: as §1

[3] = target: Neu5Ac(a2-3)Gal(b1-3)GalNAc
Summary of the method: as §1

[4] = target: Neu5Ac(a2-3)Gal(b1-3)GalNAc(b1-3)Gal(a1-4)Gal(b1-4)Glc
Summary of the method: as §1

[5] = target: Neu5Ac(a2-3)Gal(b1-3)GalNAc(b1-4)[Neu5Ac(a2-3)]Gal(b1-4)Glc
Summary of the method: as §1

[6] = target: Neu5Ac(a2-3)Gal(b1-3)GalNAc6S
Summary of the method: as §1

[7] = target: Neu5Ac(a2-3)Gal(b1-3)GlcNAc
Summary of the method: as §1

[8] = target: Neu5Ac(a2-3)Gal(b1-3)GlcNAc(b1-3)Gal(b1-3)GlcNAc
Summary of the method: as §1

[9] = target: Neu5Ac(a2-3)Gal(b1-3)GlcNAc(b1-3)Gal(b1-4)GlcNAc
Summary of the method: as §1

[10] = target: Neu5Ac(a2-3)Gal(b1-3)GlcNAc6S
Summary of the method: as §1

[11] = target: Neu5Ac(a2-3)Gal(b1-3)[Fuc(a1-4)]GlcNAc
Summary of the method: as §1

[12] = target: Neu5Ac(a2-3)Gal(b1-3)[Fuc(a1-4)]GlcNAc(b1-3)Gal(b1-4)[Fuc(a1-3)]GlcNAc
Summary of the method: as §1

[13] = target: Neu5Ac(a2-3)Gal(b1-3)[Neu5Ac(a2-3)Gal(b1-4)]GlcNAc
Summary of the method: as §1

[14] = target: Neu5Ac(a2-3)Gal(b1-3)[Neu5Ac(a2-6)]GalNAc
Summary of the method: as §1

[15] = target: Neu5Ac(a2-3)Gal(b1-4)Glc
Summary of the method: as §1

[16] = target: Neu5Ac(a2-3)Gal(b1-4)GlcNAc
Summary of the method: as §1

[17] = target: Neu5Ac(a2-3)Gal(b1-4)GlcNAc(b1-3)Gal(b1-3)GlcNAc
Summary of the method: as §1

[18] = target: Neu5Ac(a2-3)Gal(b1-4)GlcNAc(b1-3)Gal(b1-4)GlcNAc
Summary of the method: as §1

[19] = target: Neu5Ac(a2-3)Gal(b1-4)GlcNAc(b1-3)Gal(b1-4)GlcNAc(b1-3)Gal(b1-4)GlcNAc
Summary of the method: as §1

[20] = target: Neu5Ac(a2-3)Gal(b1-4)GlcNAc(b1-3)Gal(b1-4)[Fuc(a1-3)]GlcNAc
Summary of the method: as §1

[21] = target: Neu5Ac(a2-3)Gal(b1-4)GlcNAc(b1-6)[Gal(b1-3)]GalNAc
Summary of the method: as §1

[22] = target: Neu5Ac(a2-3)Gal(b1-4)GlcNAc6S
Summary of the method: as §1

[23] = target: Neu5Ac(a2-3)Gal(b1-4)[Fuc(a1-3)]GlcNAc
Summary of the method: as §1

[24] = target: Neu5Ac(a2-3)Gal(b1-4)[Fuc(a1-3)]GlcNAc(b1-3)Gal
Summary of the method: as §1

[25] = target: Neu5Ac(a2-3)Gal(b1-4)[Fuc(a1-3)]GlcNAc(b1-3)Gal(b1-4)GlcNAc
Summary of the method: as §1

[26] = target: Neu5Ac(a2-3)Gal(b1-4)[Fuc(a1-3)]GlcNAc(b1-3)Gal(b1-4)[Fuc(a1-3)]GlcNAc(b1-3)Gal(b1-4)[Fuc(a1-3)]GlcNAc
Summary of the method: as §1

[27] = target: Neu5Ac(a2-3)Gal(b1-4)[Fuc(a1-3)]GlcNAc6S
Summary of the method: as §1

[28] = target: Neu5Ac(a2-3)Gal6S(b1-4)GlcNAc
Summary of the method: as §1

[29] = target: Neu5Ac(a2-3)Gal6S(b1-4)[Fuc(a1-3)]GlcNAc
Summary of the method: as §1

[30] = target: Neu5Ac(a2-3)GalNAc
Summary of the method: as §1

[31] = target: Neu5Ac(a2-3)GalNAc(b1-4)GlcNAc
Summary of the method: as §1

[32] = target: Neu5Ac(a2-3)[GalNAc(b1-4)]Gal(b1-4)Glc
Summary of the method: as §1

[33] = target: Neu5Ac(a2-3)[GalNAc(b1-4)]Gal(b1-4)GlcNAc
Summary of the method: as §1

[34] = target: Neu5Ac(a2-3)[Neu5Ac(a2-6)]GalNAc
Summary of the method: as §1

[35] = target: Neu5Ac(a2-6)Gal(b1-4)GlcNAc
Summary of the method: as §1

[36] = target: Neu5Ac(a2-6)Gal(b1-4)GlcNAc(b1-2)Man(a1-3)[Neu5Ac(a2-6)Gal(b1-4)GlcNAc(b1-2)Man(a1-6)]Man(b1-4)GlcNAc(b1-4)GlcNAc
Summary of the method: as §1

[37] = target: Neu5Ac(a2-6)Gal(b1-4)GlcNAc(b1-3)Gal(b1-4)GlcNAc
Summary of the method: as §1

[38] = target: Neu5Ac(a2-6)Gal(b1-4)GlcNAc(b1-3)Gal(b1-4)[Fuc(a1-3)]GlcNAc(b1-3)Gal(b1-4)[Fuc(a1-3)]GlcNAc
Summary of the method: as §1

[39] = target: Neu5Ac(a2-6)Gal(b1-4)GlcNAc6S
Summary of the method: as §1

[40] = target: Neu5Ac(a2-6)GalNAc
Summary of the method: as §1

[41] = target: Neu5Ac(a2-6)GalNAc(b1-4)GlcNAc
Summary of the method: as §1

[42] = target: Neu5Ac(a2-8)Neu5Ac
Summary of the method: as §1

[43] = target: Neu5Ac(a2-8)Neu5Ac(a2-3)Gal(b1-4)Glc
Summary of the method: as §1

[44] = target: Neu5Ac(a2-8)Neu5Ac(a2-3)[GalNAc(b1-4)]Gal(b1-4)Glc
Summary of the method: as §1

[45] = target: Neu5Ac(a2-8)Neu5Ac(a2-8)Neu5Ac
Summary of the method: as §1

[46] = target: Neu5Ac(a2-8)Neu5Ac(a2-8)Neu5Ac(a2-3)Gal(b1-4)Glc
Summary of the method: as §1

[47] = target: Neu5Ac(a2-8)Neu5Ac(a2-8)Neu5Ac(a2-3)[GalNAc(b1-4)]Gal(b1-4)Glc
Summary of the method: as §1

[48] = target: Neu5Ac(a2-8)Neu5Ac(a2-8)Neu5Ac(a2-8)Neu5Ac(a2-3)[GalNAc(b1-4)]Gal(b1-4)Glc
Summary of the method: as §1

[49] = target: Neu5Ac9Ac(a2-6)Gal(b1-4)GlcNAc
Summary of the method: as §1

[50] = target: Neu5Gc(a2-3)Gal(b1-3)GlcNAc
Summary of the method: as §1

[51] = target: Neu5Gc(a2-3)Gal(b1-3)[Fuc(a1-4)]GlcNAc
Summary of the method: as §1

[52] = target: Neu5Gc(a2-3)Gal(b1-4)Glc
Summary of the method: as §1

[53] = target: Neu5Gc(a2-3)Gal(b1-4)GlcNAc
Summary of the method: as §1

[54] = target: Neu5Gc(a2-3)Gal(b1-4)[Fuc(a1-4)]GlcNAc
Summary of the method: as §1

[55] = target: Neu5Gc(a2-6)Gal(b1-4)GlcNAc
Summary of the method: as §1

[56] = target: Neu5Gc(a2-6)GalNAc
Summary of the method: as §1

B1: STA (Solanum tuberosum), Q9S8M0 (protein)
chain: NASPPSPSPLPYPQCGMKKGGGKCIKTGECCSIWGWCGTTNAYCSPGYCQKQCPGPYPEGRCGWQANGKSCPTGTGQCCSNGGWCGTTSDYCASKNCQSQCKLPSPPPPPPPPSPPPPSPPSPPPPSPPPPPPPSPPPPSPPPPSPSPPPPPASPPPPPPALPYPQCGIKKGGGKCIKTGECCSIWGWCGTTNAYCSPGYCQKQCPGPYPEGRCGWQANGKSCPTGTGHCCSNAGWCGTTSDYCAPVNCQAQCNTTTLTSPIKNRMRGIESFMLNVV
glycan array binding signal (z-score) [1]: -0.269
glycan array binding signal (z-score) [2]: -0.56
glycan array binding signal (z-score) [3]: -0.571
glycan array binding signal (z-score) [4]: -0.585
glycan array binding signal (z-score) [5]: -0.577
glycan array binding signal (z-score) [6]: -0.558
glycan array binding signal (z-score) [7]: -0.53
glycan array binding signal (z-score) [8]: -0.575
glycan array binding signal (z-score) [9]: 1.81
glycan array binding signal (z-score) [10]: -0.579
glycan array binding signal (z-score) [11]: -0.574
glycan array binding signal (z-score) [12]: -0.589
glycan array binding signal (z-score) [13]: -0.532
glycan array binding signal (z-score) [14]: -0.575
glycan array binding signal (z-score) [15]: -0.584
glycan array binding signal (z-score) [16]: 1.9
glycan array binding signal (z-score) [17]: -0.499
glycan array binding signal (z-score) [18]: 1.64
glycan array binding signal (z-score) [19]: 1.71
glycan array binding signal (z-score) [20]: -0.571
glycan array binding signal (z-score) [21]: -0.127
glycan array binding signal (z-score) [22]: 1.68
glycan array binding signal (z-score) [23]: 0.557
glycan array binding signal (z-score) [24]: -0.57
glycan array binding signal (z-score) [25]: 1.81
glycan array binding signal (z-score) [26]: -0.597
glycan array binding signal (z-score) [27]: -0.531
glycan array binding signal (z-score) [28]: -0.552
glycan array binding signal (z-score) [29]: -0.565
glycan array binding signal (z-score) [30]: -0.579
glycan array binding signal (z-score) [31]: 2.22
glycan array binding signal (z-score) [32]: -0.579
glycan array binding signal (z-score) [33]: 1.89
glycan array binding signal (z-score) [34]: -0.567
glycan array binding signal (z-score) [35]: -0.574
glycan array binding signal (z-score) [36]: -0.571
glycan array binding signal (z-score) [37]: 1.98
glycan array binding signal (z-score) [38]: -0.578
glycan array binding signal (z-score) [39]: -0.529
glycan array binding signal (z-score) [40]: -0.587
glycan array binding signal (z-score) [41]: -0.489
glycan array binding signal (z-score) [42]: -0.57
glycan array binding signal (z-score) [43]: -0.585
glycan array binding signal (z-score) [44]: -0.574
glycan array binding signal (z-score) [45]: -0.577
glycan array binding signal (z-score) [46]: -0.578
glycan array binding signal (z-score) [47]: -0.571
glycan array binding signal (z-score) [48]: -0.572
glycan array binding signal (z-score) [49]: -0.557
glycan array binding signal (z-score) [50]: -0.567
glycan array binding signal (z-score) [51]: -0.58
glycan array binding signal (z-score) [52]: -0.591
glycan array binding signal (z-score) [53]: 1.78
glycan array binding signal (z-score) [54]: -0.361
glycan array binding signal (z-score) [55]: -0.594
glycan array binding signal (z-score) [56]: -0.576
